Laboratory results reported in PMC6919601, “Identification of Plasmodium dipeptidyl aminopeptidase allosteric inhibitors by high throughput screening” (PLoS ONE, 2019).
Among all 110,000 compounds or so, about 230 (0.21%) showed an effect of 50% or more. The list shows a part of the results.

Biological target: DPAP1 (Plasmodium falciparum, UniProt Q8IIJ9)
Assay: primary screen, percent inhibition; read by cleavage of a fluorogenic dipeptide substrate; higher = more effect of the substance
Design: species or system P. falciparum D10 trophozoite lysates; single well
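Note: 30 min substrate incubation versus DMSO and 10 µM JCP410 controls.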

Sequence of DPAP1 (Q8IIJ9 whole entry, looked up): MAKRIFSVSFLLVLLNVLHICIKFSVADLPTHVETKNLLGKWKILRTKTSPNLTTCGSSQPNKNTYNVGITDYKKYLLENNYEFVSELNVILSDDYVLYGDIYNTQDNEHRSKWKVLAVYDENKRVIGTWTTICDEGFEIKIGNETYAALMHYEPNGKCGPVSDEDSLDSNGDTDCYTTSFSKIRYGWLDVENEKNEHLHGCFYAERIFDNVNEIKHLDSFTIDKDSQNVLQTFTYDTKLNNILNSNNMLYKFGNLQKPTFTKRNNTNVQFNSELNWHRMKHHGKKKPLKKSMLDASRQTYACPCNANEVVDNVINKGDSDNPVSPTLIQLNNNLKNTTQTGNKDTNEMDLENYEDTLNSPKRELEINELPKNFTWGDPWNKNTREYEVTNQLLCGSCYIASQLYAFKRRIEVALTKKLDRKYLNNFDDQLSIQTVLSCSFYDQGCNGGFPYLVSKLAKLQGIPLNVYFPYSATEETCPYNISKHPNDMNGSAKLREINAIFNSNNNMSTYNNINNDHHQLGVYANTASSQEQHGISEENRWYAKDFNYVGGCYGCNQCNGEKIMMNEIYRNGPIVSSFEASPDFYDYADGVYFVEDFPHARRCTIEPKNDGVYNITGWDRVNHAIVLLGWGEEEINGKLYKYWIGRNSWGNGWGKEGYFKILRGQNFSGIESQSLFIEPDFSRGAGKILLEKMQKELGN

Compound | % Inhibition @ 10 uM
CN(C)C(=O)Nc1c(O)oc2ccccc2c1=O | -4.76%
CCS(=O)(=O)N1CCC(C(=O)NCCCN2CCC(Cc3ccccc3)CC2)CC1 | 3.79%
CC1CCN(S(=O)(=O)N2CCCC(C(=O)N3CCC(C(N)=O)CC3)C2)CC1 (stereo not drawn) | 0.49%
CCC(C)NC(=O)CNS(=O)(=O)c1ccc(C)cc1 (stereo not drawn) | 5.66%
N#Cc1nc(COc2ccccc2Cl)oc1NCCN1CCOCC1 | -1.98%
Cc1sc(NC(=O)C2C3CCC(O3)C2C(=O)O)c(C(N)=O)c1-c1ccc(C(C)C)cc1 (stereo not drawn) | 1.39%
Cc1ccc(CN(C(=O)c2oc3c(C)c(C)ccc3c2C)C2CCS(=O)(=O)C2)o1 (stereo not drawn) | 0.569%
COc1ccc(-c2csc(N)n2)c(OC)c1 | 6.81%
CC(Oc1ccc(Cl)cc1Cl)C(=O)NCC1CCCO1 (stereo not drawn) | -6.25%
Cc1ccc(C(C2=C(O)CCCC2=O)C2C(=O)CCCC2=O)o1 (stereo not drawn) | -3.98%
Cc1ccc(S(=O)(=O)Cc2nc(-c3ccc(C(=O)N4CCOCC4)cc3)oc2C)cc1 | -5.73%
Cc1nn(CC(=O)NCC(C)c2ccccc2)c(=O)c2cccn12 (stereo not drawn) | -4.93%
O=C(O)c1ccc2c(c1)C(=O)N(c1cccc(O)c1)C2=O | -3.55%
O=C(c1cccs1)N(Cc1ccccc1)Cc1ccccc1 | -0.687%
CC(C)CC(C(=O)NCC#N)c1cccc(-c2ccc(S(=O)(=O)N3CCN(C=O)CC3)cc2)c1 (stereo not drawn) | -1.41%
CC1CC(C)CN(C(=O)c2ccc(CNS(=O)(=O)c3cccc(C(F)(F)F)c3)cc2)C1 (stereo not drawn) | 3.72%
COc1ccc(C2=NN(c3ccccc3)C(c3cccs3)C2)cc1 (stereo not drawn) | 0.247%
Cc1ccccc1-c1nc(Cn2c(=O)cc(C)c3c(C)nn(-c4cccc(F)c4)c32)c(C)o1 | -1.87%
CC(NC(=O)Cn1cccc1)c1ccccc1 (stereo not drawn) | -0.692%
CC1(C)CC(Nc2nc(NC3CC(C)(C)NC(C)(C)C3)nc(N3CCOCC3)n2)CC(C)(C)N1 | -8.11%
CCNC(=O)Nc1nc2ccccc2s1 | 2.92%
O=C(Cn1nc(-c2ccc(Cl)cc2)ccc1=O)NCCCN1CCC(Cc2ccccc2)CC1 | -0.0542%
COc1ccc(-c2nnc3sc(NC(=O)c4ccccc4C)nn23)cc1OC | 0.00665%
Cc1nnc2c3c4c(sc3ncn12)CC(C)CC4 (stereo not drawn) | 2.38%
Cc1cc2c3c(c1)OC(C)(C)CC3OC(O)C2 (stereo not drawn) | 2.76%

Compound | % Inhibition @ 10 uM
O=C(Nc1ccc(O)cc1)c1cccc(F)c1 | -6.02%
Cc1nn(CCCC(=O)N2CC(C)CC(C)C2)c(=O)c2cc3sccc3n12 (stereo not drawn) | -1.58%
CCc1ccc(-c2csc(Nc3cccc(C(F)(F)F)c3)n2)cc1 | -3.97%
O=C(NC1(C(F)(F)F)NC(=O)N(CCc2ccccc2)C1=O)C1CC1 (stereo not drawn) | -0.992%
CCOc1ccc(CCNC(=O)c2csc3c2CCCC3)cc1 | -3.21%
CCN1C(=O)C(CC(=O)O)S/C1=N/c1cccc(Cl)c1Cl (stereo not drawn) | -2.83%
CC1=C(C(=O)Nc2ccc(C)cn2)C(c2cccc(Oc3ccccc3)c2)C2=C(O)CCCC2=N1 (stereo not drawn) | 9.13%
COc1ccc(CNC(=O)CN(c2ccc(C)c(C)c2)S(C)(=O)=O)cc1 | 5.12%
CC(C)(C)C(=O)NCc1nc2ccccc2n1Cc1c(F)cccc1Cl | 6.01%
CN1C(=O)CCC(CCC(=O)O)(c2ccccc2O)C1=O (stereo not drawn) | 2.89%
CCCNC(=O)CN(c1ccc(OCC)cc1)S(C)(=O)=O | -4.62%
COc1ccc(C(=O)c2sc3nc4c(c(C(F)(F)F)c3c2N)CN(C(C)=O)CC4)cc1 | 10.6%
CCn1cc(S(=O)(=O)NCc2ccc(OC)c(OC)c2)cn1 | -4.42%
c1ccc(-c2cc(N3CCCC3)n3cnnc3n2)cc1 | -2.57%
CNS(=O)(=O)c1ccc(/N=C/c2c(C)nn(-c3ccc(C)cc3C)c2O)cc1 | 0.674%
Cn1nc(C(=O)NC2CCCCC2)c2c1-c1ccsc1CC2 | -4.27%
CCC(=O)N1c2ccccc2N=C2CC(C)(C)CC(O)=C2C1c1cccs1 (stereo not drawn) | -2.54%
COCCCN1C(=O)S/C(=C/c2cc(Cl)c(O)c(Cl)c2)C1=O | -1.04%
COc1ccccc1CNC(=O)C1=C(C)C(=O)OC12CCC(C)CC2 (stereo not drawn) | -1.89%
CC(=O)OC1(C#CCN2CCN(C)CC2)CCCCC1 | -1.15%
COc1ccc(OCC(=O)Nc2ccccc2-c2ccccc2)cc1 | -7.75%
CC1=CC(C)(C)NC(=S)N1c1ccc2ccccc2c1 | -0.687%
CCOC(=O)c1c(N)n(CCc2ccccc2)c2nc3ccccc3nc12 | -12.5%
Cc1c(Br)c(C(F)(F)F)nn1CC(=O)NCCN1CCOCC1 | -2.6%
O=C(c1nnc(Cc2ccc(F)cc2Cl)o1)N1CCN(C2CCCCC2)CC1 | 8.63%

Compound | % Inhibition @ 10 uM
CC1C(c2ccc(F)cc2)=[N+]([O-])C(C)(C(=O)c2ccccc2)N1O (stereo not drawn) | 1.63%
COC(=O)C1=C(C)OC(=O)C1(NC(=O)c1ccccc1)C(F)(F)F (stereo not drawn) | -4.49%
COc1ccc2c(c1)SCC/C2=C\CN1C(=O)CCC1=O | 0.408%
CCc1n[nH]c(SCc2ccc(OC)cc2)n1 | -3.06%
Cc1sc2c(c1C)CSC(C(=O)NCc1ccccc1Cl)=C2 | -7.05%
CCOc1ccc(-c2csc(/C(C#N)=C/c3ccc(N(C)C)cc3)n2)cc1 | 0.98%
O=C1CSC2(CN3CCC2CC3)N1 (stereo not drawn) | -4.01%
CCCOC(=O)c1c(NC(=O)c2ccc3c(c2)OCO3)sc2c1CCC(C)C2 (stereo not drawn) | 3.94%
CC1=C(C(=O)OCC2CCCCC2)C(c2cccc(Cl)c2)NC(=O)N1 (stereo not drawn) | 8.87%
CC(C)(C)c1ccc(S(=O)(=O)NCC(=O)Nc2sc3c(c2C(N)=O)CCCC3)cc1 | 2.63%
COCCCN1C(=O)c2[nH]nc(-c3ccccc3O)c2C1c1cc(Br)c(O)c(OC)c1 (stereo not drawn) | -5.18%
COc1ccc(-c2noc(CC(=O)NCCN(C)C)n2)cc1 | 0.304%
O=C(Nc1ccc(F)cc1F)c1cnccn1 | 1.26%
O=P(Nc1cccnc1)(Oc1ccccc1Cl)Oc1ccccc1Cl | 5.7%
O=C(COc1ccc(-c2cnc3ccccc3n2)cc1)c1ccc(F)cc1 | -1.43%
COc1ccc(C2C(C#N)=C(N)Oc3[nH]nc(-c4ccccn4)c32)c(OC)c1OC (stereo not drawn) | -2.78%
Cc1cc(C)nc(NC(=O)CCCOc2ccc(Cl)cc2C)n1 | -1.33%
Cc1ccc(-c2cc(C(F)(F)F)n3nc(C(=O)NCc4c(C)nn(C)c4C)cc3n2)cc1 | -5.44%
CC(Oc1cccc(Cl)c1)C(=O)Nc1ncccc1Cl (stereo not drawn) | 0.528%
COc1cc(CN2CCNCC2)cc2c1OCO2 | -4.89%
CCCCOC(=O)c1ccc(NS(=O)(=O)c2ccc(Cl)cc2)cc1 | 4.81%
COC(=O)c1sc(-c2ccccc2)cc1NC(=O)c1ccc(OC)c(OC)c1 | 1.22%
COc1cc(-c2nnc3sc(-c4ccccc4C)nn23)cc(OC)c1OC | 1.25%
Cc1ccc(S(=O)(=O)CCc2nc3ccccc3o2)cc1C | -13.6%
CC(=O)c1cccc(NC(=O)c2sc3ccccc3c2Cl)c1 | -2.56%

Compound | % Inhibition @ 10 uM
CCN1CCN(C(=O)Cn2ncc3c4ccccc4n(C)c3c2=O)CC1 | -5.49%
CCc1cc2c(=O)c(-c3nc4ccccc4[nH]3)coc2c(CN2CCCC(C)C2)c1O (stereo not drawn) | -1.11%
COc1ccc(CNC2CC(C)(C)NC(C)(C)C2)cc1 | -1.6%
CN(C)C(=O)Cc1ccc2c3c(cccc13)CC2 | 4.38%
O=C(OCc1ccccc1F)c1ccc(-n2nnnc2Cc2ccccc2F)cc1 | 4.57%
COc1cc(C(=O)N2CCN(Cc3ccc(OC)c(OC)c3OC)CC2)cc(OC)c1OC | 2.26%
Cc1cccc2c(C(=O)O)cc(C(=O)O)nc12 | 1.64%
O=C1C2C3C=CC(C2C(=O)N1c1nn[nH]n1)C1C(=O)N(c2nnn[nH]2)C(=O)C31 (stereo not drawn) | -2.42%
COc1ccc(-c2nc(CS(=O)CC(=O)NCCc3ccc(OC)c(OC)c3)c(C)o2)cc1 (stereo not drawn) | 2.37%
CNC(=O)C1CCCN(c2nn3cc(-c4ccc(C)cc4)nc3s2)C1 (stereo not drawn) | -6.76%
COc1cccc(-c2nc(SCCOc3ccccc3C)n3[nH]c(=O)cc3n2)c1 | -0.678%
C=CCc1ccccc1OCc1nc2ccccc2n1CC=C | -4.75%
N#CC(=C1Nc2ccccc2N1)S(=O)(=O)c1ccccc1 | -2.07%
CC(C)C[C@H](NC(=O)OCc1cccc(OCc2ccccc2)c1)C(=O)NCC#N | -4.72%
Cc1ccc(NC(=O)CN(c2ccc(C(C)C)cc2)S(C)(=O)=O)cc1 | -3.18%
Cc1ccc(/C=C2/C(=N)N3C(=NC2=O)SN=C3S(=O)(=O)C(C)C)cc1 | -3.39%
Cc1cc(C)c2c(N)c(C(=O)Nc3ccc(Br)cc3)sc2n1 | 1.96%
CC1=C(C(=O)Nc2ccc(Br)cc2)C(c2ccc3c4c(cccc24)CC3)NC(S)=N1 (stereo not drawn) | -0.233%
COc1cccc(CSc2nc3ccccc3c3nc(C)nn23)c1 | 2.24%
COc1cc(C(=O)NCc2nnc(SCC(=O)NC3CCCCC3)o2)cc(OC)c1OC | 1.64%
C#CCOc1c(Cl)cc(C2C3=C(CCCC3=O)N(CCC(=O)O)C3=C2C(=O)CCC3)cc1OC | -7.08%
Cc1ccc(C2=NN=C(NC(=O)CSc3ccccc3)SC2)cc1 | -4.07%
O=C(NC1CCCC1)c1ccc2c(c1)sc1nc(-c3ccccc3)cn12 | 2.46%
CN(CC(=O)Nc1ccc(Oc2ccccc2)cc1)S(=O)(=O)c1ccc(Cl)cc1 | 3.65%
